Measured values taken from PubChem BioAssay AID1508624 (National Center for Advancing Translational Sciences (NCATS), 2021).
Among all 48,000 compounds or so, about 120 (0.25%) were called active. Roughly 4% stayed inconclusive and do not appear here. The call rests on the fitted dose curve; in most records, active means well fitted activation curve with a large enough effect; inconclusive means small, poorly fitted or top-dose-only effect, or another doubt; inactive means no such curve, though single readings can be large or run the other way. This is one part of the list.

Assay: Primary qHTS for Identification of Small Molecule Activators of Huntingtin-Antisense Promoter Activity; further: nearly all actives have a fitted effect of over 55% in size
Conditions: HEK293 HTT-AS promoter firefly luciferase reporter, 24 h; series mostly up to 57.5 µM; activity change, positive = activation: at the top concentration
How it was run: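 Firefly luciferase readout (Dual-Glo, 10 min RT) after 24 h, 37 °C compound exposure (final up to 57.5 uM) of HEK293 reporter cells cultured 24 h beforehand; PTC124 at 50 uM final as control inhibitor; activity scaled vehicle 0%, zero RLU -100%.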

Activity change, positive = activation, inactive:
CCCS(=O)(=O)N1CCC(C(=O)NCCOC)CC1 -10.3%
Cc1cc(F)ccc1NC(=O)C1CCC(CNS(=O)(=O)c2ccc3c(c2)CCCC(=O)N3)CC1 (stereo not given) -29.4%
COc1cccc(N2CCN(C(=O)CN3CCSc4ccccc43)CC2)c1 -30.3%
Clc1ccc(Nc2c(-c3ccccc3Cl)nc3ccc(Cl)cn23)cc1 -39.3%
COc1ccc(C)cc1NC(=O)c1cc(S(=O)(=O)N2CCN(c3cccc(C)c3C)CC2)ccc1F -8.03%
Cc1c(C(=O)Nc2ccccc2Cl)oc2ccc(S(=O)(=O)N3CCCCC3)cc12 -1.36%
CCCn1c2ccc(F)cc2c2nnc(SCCN(CC)CC)nc21 -19.3%
Cc1ccc(C(=O)Nc2cccc(C(=O)OCc3cc(=O)n4nc(C5CC5)sc4n3)c2)cc1 18.6%
CCCOc1ccc(C2CC(=O)Nc3c2c(=O)n(C)c(=O)n3C)cc1OC (stereo not given) -11.7%
CCOc1ccc(N2CC(NC(=O)C3CC3)CC2=O)cc1 (stereo not given) -15.5%
COc1ccc(-n2nc(C(=O)NCc3ccc(F)cc3Cl)c3c4ccccc4n(C)c3c2=O)cc1Cl -3.79%
CCCCN(CC)CCCNC(=O)Cn1ncc2c3ccccc3n(Cc3ccc(F)cc3)c2c1=O -6.59%
Cn1c(=O)c(=O)n(C)c2cc(S(=O)(=O)N3CCN(c4ccccc4)CC3)ccc21 -8.36%
Cc1cccc(C(=O)Oc2c(Sc3ccccc3)c(C)nn2C(C)(C)C)c1 -26.4%
CC(NC(=O)c1ccc2c(c1)sc1nc(-c3ccccc3)cn12)C12CC3CC(CC(C3)C1)C2 (stereo not given) -7.31%
CCOC(=O)c1c(S(=O)(=O)N2CCCC(C(=O)NCc3ccccc3OC)C2)c(C)n(C)c1C (stereo not given) -6.01%
CCc1nc(SC)ncc1C(=O)N1CCN(c2cc(C)ccc2C)CC1 -35.9%
Cc1ccc(NC(=O)c2ccc(=O)n(Cc3ccccc3C)c2)c(C)c1 -22.6%
Cc1ccc(CN2CCCn3nc(C(=O)NCCc4cccc(C)c4)cc3C2=O)cc1 -9.66%
Cc1ccc(-c2nc(N3CCCC(C)C3)c3ccccc3n2)cc1 (stereo not given) -3.12%
CCc1ccccc1NC(=O)CSc1nc2c(oc3ccccc32)c(=O)n1C -10.3%
NC(=O)C1CCN(S(=O)(=O)c2ccc(N3CCCCS3(=O)=O)cc2)CC1 1.24%
COc1cccc(CNC(=O)C2CCCN(c3nc4ccccc4n4cccc34)C2)c1 (stereo not given) -7.57%
Cc1nn(C)c2c1c(-c1ccccc1)cc(=O)n2CC(=O)NC(C)C -9.35%
Cc1ccc(CN2CCCn3nc(C(=O)NCCc4ccccc4Cl)cc3C2=O)cc1 9.67%
COc1ccc(CCNCc2ccc3c(c2)n(C)c(=O)n3C)cc1OC -15.2%
Cc1ccc(CNC(=O)c2ccc3c(O)c(S(=O)(=O)c4ccc(Cl)cc4)c(=O)[nH]c3c2)cc1 -6.5%
CCOc1ccccc1NC(=O)C1=C(C)Nc2ncnn2C1c1ccc(C)o1 (stereo not given) -14.8%
COc1ccc(-c2nc(CCNC(=O)c3ccc(Br)o3)cs2)cc1 -24.5%
O=[N+]([O-])c1cc(-c2nc(-c3ccccc3)no2)ccc1N1CCOCC1 -17.6%
CCc1ccccc1NC(=O)Cn1c(SCc2ccc(F)cc2)nc2ccncc21 -1.84%
CCc1cccc(CC)c1NC(=O)CCS(=O)(=O)c1ccc2c(c1)CCN2C(C)=O -6.57%
COc1ccc(-c2nc(CNS(=O)(=O)c3cccc(F)c3)cs2)cc1 -30.2%
O=C(CCCn1c(=O)c2cccn2c2ccccc21)NCc1ccccc1Br -8.89%
COc1cc(C(C)C)c2c(c1)S(=O)(=O)N(COc1cc(=O)n3cccc(OCCN4CCCCC4)c3n1)C2=O -28.1%
Cc1ccc(Nc2sc(C(=O)c3ccccc3)c(N)c2C(N)=O)cc1 -7.93%
CC1CCN(C(=O)C2COc3ccccc3C2)CC1 (stereo not given) 32%
COc1ccc(S(=O)(=O)NCc2nc3nc(C)cc(C)n3n2)cc1OC -7.55%
COc1ccc(Nc2c3c(nc4nncn24)CCC3)cc1OC -27.4%
COc1ccc(CNC(=O)CSc2c3c(nc4ccc(Cl)cc24)CCCC3)cc1 -35.9%
CCc1nn(CC(=O)Nc2ccc(NC(C)=O)cc2)c(=O)c2cc3sccc3n12 -7.94%
O=C(Cn1cnc2onc(-c3ccc(Cl)cc3)c2c1=O)Nc1ccc(F)cc1 -0.29%
COCCNC(=O)CN1C(=O)c2cccnc2Oc2ccc(Cl)cc21 -3.31%
CN(C)CCN(Cc1ccsc1)c1ccccn1 -4.24%
Cc1ccc(S(=O)(=O)N(CCc2ccccc2)CC(=O)Nc2ccc(Br)cc2)cc1 -25.6%
CCOC(=O)c1ccc(N2C(=O)c3n[nH]c(-c4ccco4)c3C2c2cccc(O)c2)cc1 (stereo not given) -50%
COc1cccc(NC(=O)CSC2=Nc3ccccc3C3=NC(CC(=O)NCc4ccc5c(c4)OCO5)C(=O)N23)c1 (stereo not given) -6.16%
COc1ccc(C)cc1NC(=O)Nc1ccccc1OCc1cc(=O)n2ccccc2n1 -37.4%
CCCCNC(=O)c1cnc2sc(N3CCCCCC3)nn2c1=O -8.46%
Cc1cc(C)c(NC(=O)C(=O)NCC(c2cccnc2)N2CCN(Cc3ccccc3)CC2)c(C)c1 (stereo not given) -12.7%
Cc1ccccc1-c1noc(-c2ccc(N3CCN(C)CC3)c([N+](=O)[O-])c2)n1 -69.7%
COc1ccc2c(c1)c1c(c(=O)n(-c3ccccc3)c(=O)n1CC(=O)NCc1ccc(C)cc1)n2C -7.11%
CSc1nn(Cc2cccc(Cl)c2)c(N(C(C)=O)C(C)=O)c1S(=O)(=O)c1ccccc1 -38.8%
COc1ccc(CC(=O)N(Cc2nc(-c3ccc(C)cc3)no2)C(C)C)cc1 -26%
O=C(CSc1nc2nccnc2c(=O)n1CCc1c[nH]c2ccccc12)Nc1ccc(F)cc1 -31.5%
Cc1ccc(NC(=O)c2ccc(CNS(=O)(=O)c3ccc4c(c3)C(C)(C)C(=O)N4C)cc2)cc1F -45%
CCCCOc1ccccc1C(=O)N(Cc1cccc(F)c1)C1CCS(=O)(=O)C1 (stereo not given) -15.7%
CCOc1ccc(CCNC(=O)CSc2nnnn2-c2ccc(C)cc2C)cc1OCC -23.9%
CCOC(=O)C1=C(CN(C)Cc2ccccc2)NC(=O)NC1c1ccc(OC)cc1 (stereo not given) -24%
O=C(NCC(c1cccnc1)N1CCc2ccccc21)c1ccc(F)cc1 (stereo not given) -33.6%
CCOc1ccc(NC(=O)N(C)CCc2c(C)nn(C)c2C)cc1 6.44%
CN(C)c1ccc(NC(=O)CSc2nc3ccsc3c(=O)n2CCCCCC(=O)O)cc1 -9.37%
COc1cc(OC)c(NC(=O)C(Cc2ccccc2)NS(=O)(=O)c2cccc3nsnc23)cc1Cl (stereo not given) -15.4%
Cc1c(C(=O)N(Cc2ccco2)Cc2ccccc2Cl)oc2ccc(F)cc12 -33.3%
COc1ccc(OC(C)C(=O)NCc2nc(-c3cccc(C)c3)no2)cc1 (stereo not given) 8.8% [at 11.5 µM, percent change from vehicle, -100% = no light]
CC(=O)c1cccc(NC(=O)Cc2noc3ccccc23)c1 4.3%
CC(C)CCNC(=O)CN1C(=O)c2cccnc2Sc2ccccc21 -6.15%
COc1ccc(CC(=O)Nc2cc(-c3cn4cccnc4n3)ccc2OC)cc1 -10.4%
O=C(Nc1ccc2nc(SCCOc3ccccc3Cl)sc2c1)c1ccc2c(c1)OCO2 -35.6%
CCCCC(=O)NC1(C(F)(F)F)C(=O)Nc2c1c(=O)[nH]c(=O)n2-c1ccc(C)c(C)c1 (stereo not given) -3.31%
Cc1ccc(S(=O)(=O)NCc2ccc(C(=O)NCCc3cccc(C)c3)cc2)cc1 -9.48%
COc1ccc(S(=O)(=O)N(Cc2nc(-c3ccc(Cl)cc3)no2)C2CCCCC2)cc1 -35.4%
N#Cc1c(C(F)(F)F)cc(-c2cccs2)nc1SCC(=O)Nc1cccc(C(F)(F)F)c1 -48.1%
O=C(c1ccccc1Br)N1CCC(c2nc3ccccc3o2)CC1 -21%
Cc1ccc(Cn2c(=O)n(-c3cc(C)cc(C)c3)c(=O)c3oc4ccccc4c32)cc1 -20.4%
O=S(=O)(c1ccc(-n2cnnn2)cc1)N1CCN(c2cccc(C(F)(F)F)c2)CC1 -13%
Cc1oc(C)c2c(=O)cc(-c3ccc4c(c3)OCO4)cc(OC(=O)c3cccc(Cl)c3)c12 -24.2%
COc1cc(C(=O)N(Cc2cccnc2)c2nc3cc(C)c(C)cc3s2)cc(OC)c1OC -23.2%
COc1cc(Cl)c(C)cc1NC(=O)c1sc2nc(C)cc(C)c2c1N -0.488%
Cc1ccsc1CN(C(=O)COc1cccc(C)c1C)C1CCS(=O)(=O)C1 (stereo not given) -18%
CN1C(=O)C(C)(C)c2cc(S(=O)(=O)N3CCCC3C(=O)Nc3ccc(F)cc3)ccc21 (stereo not given) -31.2%
CCOC(=O)COc1ccc(F)cc1C(=O)c1ccn2nc(-c3ccc(C)cc3)cc2n1 -9.69%
COc1ccccc1NC(=O)C(Cc1ccccc1)NS(=O)(=O)c1cccc2nsnc12 (stereo not given) -3.63%
CCCCOC(=O)c1cccc(NC(=O)/C=C/c2ccccc2Cl)c1 -43.1%
Nc1ccccc1NC(=O)c1ccc(CNc2nccc(-c3cccnc3)n2)cc1 -13.4%
COC(=O)c1ccc(Cl)cc1NC(=O)N(Cc1ccc(OC)cc1)C1CCN(C(C)=O)CC1 -15.9%
COc1ccc(OC)c(NC(=O)CSc2nc3ccccc3c(=O)n2CCC(=O)NC2CCCCC2)c1 1.64%
O=C(Cn1c(SCC(=O)Nc2ccc(F)cc2)nc2ccccc21)NCc1ccccc1Cl -11.3%
COc1ccc(-n2cc(C(=O)OCc3ccc(Cl)cc3)c3ccccc3c2=O)cc1 -3.25%
CN(C)c1ccc(C(CNS(=O)(=O)c2ccc(F)cc2)N2CCOCC2)cc1 (stereo not given) -22.9%
CCC(C(=O)Nc1ccc(C(=O)OC)cc1)n1nc(-c2ccc(C)c(C)c2)ccc1=O (stereo not given) -29%
COc1cc(OC)cc(C(=O)Nc2cc(-c3nc4cccnc4s3)ccc2C)c1 -10.9%
Cc1c(C(=O)OC2CCCCCC2)[nH]c2c1C(=O)CC(c1ccc(N(C)C)cc1)C2 (stereo not given) -10.1%
COc1ccc(NC(=O)C2CCN(S(=O)(=O)c3ccc4c(c3)CCCC(=O)N4)CC2)c(OC)c1 -23%
CCOc1ccc(Nc2sc(C(=O)c3cccc(OC)c3)c(N)c2S(=O)(=O)c2ccccc2)cc1 32.1%
